The whole screen tested about 150,000 compounds, of which about 540 (0.36%) showed an effect of 50% or more. The list shows a part of the results.
test system: Plasmodium falciparum; test: Primary screen in NF54 nanoGlo assay, in single point, at 2uM, 72h; a lower Z score goes with more inhibition; assay type: functional, Erythrocyte; settings: timepoint 72 hour

In order of falling “% Inhibition” value:
1. CC(C)(NC(=O)CC1(O)CCCCC1)C(=O)Nc1ccccc1  32%
2. COc1ccc(-c2cc3n(n2)CCC(=O)N3Cc2ccc(C(=O)Nc3ccc(F)cc3F)cc2)cc1  16%
3. CC(C)OC(C)(C)c1nc(Cn2cnc3ccccc32)no1  6%
4. Cc1cc(OCCNCCO)cc(C)c1Cl  4%
5. COc1ccc(-n2nc(C)c3sc(N(C)CC(=O)N4CCCCC4)nc32)cc1  4%
6. Cc1cccc(NC2CCN(C(=O)c3cc(O)cs3)CC2)n1  1%
7. N=C1C(c2nc(-c3ccc(Cl)cc3)cs2)=C(O)CN1C1CCN(Cc2ccccc2)CC1  1%
8. Cc1ccc2[nH]c(N3CCN(S(=O)(=O)c4cccs4)CC3)nc2c1  0%
9. CN1CCC(N(C)C2CCCCC2N(C)C(=O)Nc2ccc(F)cc2Cl)CC1 (centres undefined)  0%
10. Cc1cscc1C(=O)N(C)Cc1cnn(C)c1C  -1%
11. CCc1ccc(CN(C)CCN(C2CCOCC2)[C@H]2CCCN(S(C)(=O)=O)C2)cc1  -1%
12. CN(C)C(=O)CN1CC[C@H](NC(=O)c2ccccc2N2CCCC2)[C@@H](O)C1  -2%
13. COCCCNC(=O)C1CCN(C(=O)N2C[C@@H]3C[C@H](C2)[C@H]2CCCC(=O)N2C3)CC1  -2%
14. CC1(C)CN(CCOCc2ccccc2)CC[C@]1(C)O  -3%
15. CCN(CC)C(=O)N1CCC(C(=O)N[C@@H](C(=O)OC(C)(C)C)c2ccccc2)CC1  -5%
16. CN(C)S(=O)(=O)c1ccc(C(=O)N2CCCC[C@H](c3ccc(F)cc3)C2)cc1  -5%
17. Cc1ccc(CNC(=O)[C@@](C)(O)C2CCOCC2)s1  -5%
18. O=C(c1ccnn1C1CCC1)N1CC[C@H](c2ccccn2)C1  -6%
19. CCOC(=O)C(NC(C)=O)C(O)c1cccc(N)c1 (centres undefined)  -6%
20. Cc1nc(N2CCc3[nH]cnc3C2)cc([C@H]2C[C@@H](O)C2)n1  -6%
21. O=C(NCC1CCN(c2nc(-c3ccccc3)no2)CC1)c1ccco1  -6%
22. Brc1cncc2ncccc12  -7%
23. O=C(NCCc1cnc(C2CC2)nc1)NC1CCOC2(CCOC2)C1 (centres undefined)  -7%
24. O=C(Nc1ccc(-c2ccc3ccccc3n2)cc1)c1ccc(F)cc1  -7%
25. CC(NCCOCC(F)(F)F)C(C)n1cccn1 (centres undefined)  -8%
26. O=C(NCCc1ccccc1)c1n[nH]c2c1CN(C(=O)Cc1cccc(Cl)c1)CC2  -8%
27. CCN1CCC(CC(=O)N2C[C@H]3CC(C)=CC[C@H]3C2)CC1  -9%
28. COCc1noc(-c2nn(C)c3c2CN(S(=O)(=O)Cc2ccccc2)C3)n1  -11%
29. O=C(C1CC1c1ccccc1)N1CCN(c2ccccc2)CC1 (centres undefined)  -11%
30. COc1ncc(C(=O)NCCN2CC[C@H](c3ccccc3C)C2)cn1  -12%
31. CCN(Cc1ccc(Cl)s1)S(=O)(=O)Cc1ccc(F)cc1C  -12%
32. COC(=O)[C@H]1CC(=O)N(C2CCN(C(=O)OC(C)(C)C)CC2)C1  -13%
33. CN(CCCN1CCOCC1)C1CCN(c2ccc(C(=O)O)cc2NC(=O)c2ccccc2)CC1  -14%
34. CCC(C)(C)C(=O)N1C[C@H](c2nc(-c3ccccc3)no2)[C@@H](C)C1  -14%
35. CCOc1nccn2c(CNC(=O)c3ccc4c(c3)OCO4)nnc12  -14%
36. CC(C)CN1CCN(C(=O)c2ccn(CC(F)F)n2)CC1=O  -14%
37. O=C1CCC[C@H]2[C@@H]3C[C@H](CN(Cc4cccc5nonc45)C3)CN12  -15%
38. CC[C@H]1CCCCN1C(=O)c1ccc2c(c1)NC(=O)CO2  -15%
39. O=C(NCc1ccccc1Cl)c1ccc2c(cnn2CC(=O)N2CCCCCC2)c1  -17%
40. CCCc1ccc(OCCNC(=O)N2CCN3C(=O)CNC(=O)[C@@H]3C2)cc1  -17%
41. COc1c(C(=O)Nc2ccccc2)oc2ccc(NC(=O)c3cc(Cl)ccc3F)cc12  -22%
42. COc1ccccc1NC(=O)Cn1cc(S(=O)(=O)c2ccc(Cl)cc2)c(=O)c2ccc(C)nc21  -25%

In order of rising Z score:
1. CC(C)(NC(=O)CC1(O)CCCCC1)C(=O)Nc1ccccc1  -4.69
2. COc1ccc(-c2cc3n(n2)CCC(=O)N3Cc2ccc(C(=O)Nc3ccc(F)cc3F)cc2)cc1  -1.85
3. CC(C)OC(C)(C)c1nc(Cn2cnc3ccccc32)no1  -0.78
4. Cc1cc(OCCNCCO)cc(C)c1Cl  -0.57
5. COc1ccc(-n2nc(C)c3sc(N(C)CC(=O)N4CCCCC4)nc32)cc1  -0.52
6. N=C1C(c2nc(-c3ccc(Cl)cc3)cs2)=C(O)CN1C1CCN(Cc2ccccc2)CC1  -0.15
7. Cc1cccc(NC2CCN(C(=O)c3cc(O)cs3)CC2)n1  -0.1
8. Cc1ccc2[nH]c(N3CCN(S(=O)(=O)c4cccs4)CC3)nc2c1  0.04
9. CN1CCC(N(C)C2CCCCC2N(C)C(=O)Nc2ccc(F)cc2Cl)CC1 (centres undefined)  0.05
10. CCc1ccc(CN(C)CCN(C2CCOCC2)[C@H]2CCCN(S(C)(=O)=O)C2)cc1  0.13
11. Cc1cscc1C(=O)N(C)Cc1cnn(C)c1C  0.15
12. CN(C)C(=O)CN1CC[C@H](NC(=O)c2ccccc2N2CCCC2)[C@@H](O)C1  0.22
13. COCCCNC(=O)C1CCN(C(=O)N2C[C@@H]3C[C@H](C2)[C@H]2CCCC(=O)N2C3)CC1  0.32
14. CCN(CC)C(=O)N1CCC(C(=O)N[C@@H](C(=O)OC(C)(C)C)c2ccccc2)CC1  0.58
15. CC1(C)CN(CCOCc2ccccc2)CC[C@]1(C)O  0.67
16. O=C(NCC1CCN(c2nc(-c3ccccc3)no2)CC1)c1ccco1  0.72
17. Cc1ccc(CNC(=O)[C@@](C)(O)C2CCOCC2)s1  0.74
18. CN(C)S(=O)(=O)c1ccc(C(=O)N2CCCC[C@H](c3ccc(F)cc3)C2)cc1  0.75
19. CCOC(=O)C(NC(C)=O)C(O)c1cccc(N)c1 (centres undefined)  0.77
20. O=C(NCCc1cnc(C2CC2)nc1)NC1CCOC2(CCOC2)C1 (centres undefined)  0.88
21. CCN1CCC(CC(=O)N2C[C@H]3CC(C)=CC[C@H]3C2)CC1  0.93
22. O=C(c1ccnn1C1CCC1)N1CC[C@H](c2ccccn2)C1  0.99
23. O=C(Nc1ccc(-c2ccc3ccccc3n2)cc1)c1ccc(F)cc1  1.04
24. Cc1nc(N2CCc3[nH]cnc3C2)cc([C@H]2C[C@@H](O)C2)n1  1.18
25. O=C(C1CC1c1ccccc1)N1CCN(c2ccccc2)CC1 (centres undefined)  1.23
26. Brc1cncc2ncccc12  1.27
27. O=C(NCCc1ccccc1)c1n[nH]c2c1CN(C(=O)Cc1cccc(Cl)c1)CC2  1.33
28. CC(NCCOCC(F)(F)F)C(C)n1cccn1 (centres undefined)  1.41
29. CCC(C)(C)C(=O)N1C[C@H](c2nc(-c3ccccc3)no2)[C@@H](C)C1  1.66
30. COCc1noc(-c2nn(C)c3c2CN(S(=O)(=O)Cc2ccccc2)C3)n1  1.76
31. CCN(Cc1ccc(Cl)s1)S(=O)(=O)Cc1ccc(F)cc1C  1.89
32. CC[C@H]1CCCCN1C(=O)c1ccc2c(c1)NC(=O)CO2  2
33. CCOc1nccn2c(CNC(=O)c3ccc4c(c3)OCO4)nnc12  2.03
34. CN(CCCN1CCOCC1)C1CCN(c2ccc(C(=O)O)cc2NC(=O)c2ccccc2)CC1  2.13
35. COc1ncc(C(=O)NCCN2CC[C@H](c3ccccc3C)C2)cn1  2.16
36. CC(C)CN1CCN(C(=O)c2ccn(CC(F)F)n2)CC1=O  2.18
37. O=C(NCc1ccccc1Cl)c1ccc2c(cnn2CC(=O)N2CCCCCC2)c1  2.28
38. O=C1CCC[C@H]2[C@@H]3C[C@H](CN(Cc4cccc5nonc45)C3)CN12  2.36
39. CCCc1ccc(OCCNC(=O)N2CCN3C(=O)CNC(=O)[C@@H]3C2)cc1  2.43
40. COC(=O)[C@H]1CC(=O)N(C2CCN(C(=O)OC(C)(C)C)CC2)C1  2.47
41. COc1c(C(=O)Nc2ccccc2)oc2ccc(NC(=O)c3cc(Cl)ccc3F)cc12  2.53
42. COc1ccccc1NC(=O)Cn1cc(S(=O)(=O)c2ccc(Cl)cc2)c(=O)c2ccc(C)nc21  2.54
